# Laboratory results from paper PMC4336329 (PLoS ONE, 2015).
# In all, about 310,000 compounds went through this assay and about 2,200 (0.71%) showed an effect of 50% or more. Effects have a minus sign here. This is one part of the list.
# Target: human ether-à-go-go-related gene (hERG) potassium channel (human, UniProt Q12809)
# Assay: primary screen, population patch clamp on CHO cells stably expressing hERG
# Sequence of human ether-à-go-go-related gene (hERG) potassium channel (Q12809 whole entry, looked up): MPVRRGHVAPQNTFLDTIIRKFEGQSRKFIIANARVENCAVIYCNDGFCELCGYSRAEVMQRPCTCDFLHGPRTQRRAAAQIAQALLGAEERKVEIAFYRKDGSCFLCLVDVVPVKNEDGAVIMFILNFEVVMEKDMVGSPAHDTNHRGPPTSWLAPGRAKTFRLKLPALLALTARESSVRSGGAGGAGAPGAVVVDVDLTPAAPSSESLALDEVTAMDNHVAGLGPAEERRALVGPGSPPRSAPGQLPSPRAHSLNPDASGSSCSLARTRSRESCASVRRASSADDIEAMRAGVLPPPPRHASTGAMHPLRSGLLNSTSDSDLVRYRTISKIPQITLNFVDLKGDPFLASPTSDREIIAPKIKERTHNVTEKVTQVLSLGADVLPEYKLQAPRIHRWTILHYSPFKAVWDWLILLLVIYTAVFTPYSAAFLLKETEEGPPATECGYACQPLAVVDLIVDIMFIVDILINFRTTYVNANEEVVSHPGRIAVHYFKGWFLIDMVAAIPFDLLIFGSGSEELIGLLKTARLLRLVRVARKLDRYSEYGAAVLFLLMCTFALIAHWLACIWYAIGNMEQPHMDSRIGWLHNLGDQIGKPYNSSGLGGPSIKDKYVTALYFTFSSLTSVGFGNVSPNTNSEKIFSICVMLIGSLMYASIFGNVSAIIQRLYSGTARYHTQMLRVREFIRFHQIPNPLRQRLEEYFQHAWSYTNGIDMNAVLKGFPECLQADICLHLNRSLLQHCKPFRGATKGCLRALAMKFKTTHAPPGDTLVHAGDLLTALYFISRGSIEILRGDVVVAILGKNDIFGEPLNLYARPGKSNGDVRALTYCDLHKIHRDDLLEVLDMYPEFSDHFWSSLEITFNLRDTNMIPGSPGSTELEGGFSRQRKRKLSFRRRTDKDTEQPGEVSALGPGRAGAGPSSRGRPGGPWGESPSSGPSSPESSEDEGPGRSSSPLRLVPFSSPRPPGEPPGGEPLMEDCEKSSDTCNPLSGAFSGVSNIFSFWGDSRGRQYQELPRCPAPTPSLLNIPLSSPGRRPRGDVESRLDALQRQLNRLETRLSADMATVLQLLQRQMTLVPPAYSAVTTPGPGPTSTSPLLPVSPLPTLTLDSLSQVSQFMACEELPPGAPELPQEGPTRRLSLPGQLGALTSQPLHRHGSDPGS
row,Structure (SMILES),"hERG current change (%, negative = inhibition) at 1uM [%]"
1,CCOc1cc(C(=O)Nc2cc(C(=O)OC)ccc2C)ccc1OCC(=O)N1CCOCC1,3.5
2,Cn1c(=O)oc2cc(S(=O)(=O)CCC(=O)N3CCN(c4ccccc4F)CC3)ccc21,9.76
3,O=C(CSc1nnc(-c2ccccc2)n1Cc1ccco1)NCc1ccc2c(c1)OCO2,-22.2
4,COc1nc(NCc2ccco2)nc(N2CCC(C)CC2)n1,8.49
5,Cl.O=C(OCCN1CCOCC1)C1(c2ccccc2)CCCCC1,-3.09
6,COc1nc(OCCNS(=O)(=O)c2ccc(C)cc2)nc(N(C)C)n1,7.75
7,Nc1nnc(SCCN2C(=O)c3ccccc3C2=O)s1,-1.3
8,CCCCCCCc1c(O)nc(SCCN(C)C)[nH]c1=O.Cl,0.416
9,COc1ccccc1NC(=O)NCC(c1ccco1)N1CCCCC1 (stereo not shown),15.1
10,CCn1cc(C(=O)NCc2ccc(C)o2)c2cc(OC)c(OC)cc2c1=O,14.4
11,COC(=O)Nc1sc2c(c1C(=O)NCc1ccco1)CCCC2,-5.05
12,CCS(=O)(=O)c1ncc(Cl)c(C(=O)Nc2ccc(S(=O)(=O)N3CCC(C)CC3)cc2)n1,22.6
13,COc1ccc(-c2nc(CS(=O)CC(=O)NC3CCCCC3C)c(C)o2)cc1OC (stereo not shown),11.1
14,Cc1oc(CC(C)C)cc1C(=O)Nc1ccc(C(=O)O)cc1,6.11
15,COCCn1c(=S)[nH]c2cc(C(=O)N(CCO)Cc3ccccc3)ccc2c1=O,18.5
16,CC(/C=C1\SC(=O)N(CC(=O)Nc2ccc(O)cc2)C1=O)=C\c1ccccc1,-3.15
17,COc1ccc(Cl)cc1S(=O)(=O)N1CCCC(C(=O)NCCc2ccccc2)C1 (stereo not shown),10.3
18,CCCCC1=CC2=C(c3ccco3)C(=O)C(C)(OC(=O)c3ccc(OC)cc3)C(=O)C2=CN1CC1CC1 (stereo not shown),16.9
19,CCCCC(CC)C(=O)NCc1ccccc1OC (stereo not shown),-3.83
20,CCc1nnc(NC(=O)c2cc([N+](=O)[O-])ccc2N2CCOCC2)s1,0.37
21,COc1cc(NC(=O)[C@@H]2CCCN(S(=O)(=O)c3cccc4cccnc34)C2)cc(OC)c1OC,12.4
22,Cc1cc(C)n(C(=O)c2cccc([N+](=O)[O-])c2)n1,7.79

row,Structure (SMILES),"hERG current change (%, negative = inhibition) at 1uM [%]"
1,O=C(CC(Nc1ccccc1Cl)C(=O)OCC(=O)c1cccs1)c1ccccc1 (stereo not shown),8.49
2,CCOC(=O)c1c(NC(=O)c2c(C(=O)O)cccc2[N+](=O)[O-])sc2c1CCCC2,9.23
3,COc1ccc(CN2CCCCC2C(=O)Nc2ccc(OC)c(OC)c2)cc1OC (stereo not shown),1.96
4,O=S(Cc1ccccc1)CC(O)(c1ccc(Cl)cc1)c1ccc(Cl)cc1 (stereo not shown),8.36
5,COC(=O)c1ccccc1S(=O)(=O)N1CCC(C(=O)NCCC2=CCCCC2)CC1,3.67
6,COc1cc(OC)cc(C(=O)NC2CCN(Cc3nnnn3Cc3cccs3)CC2)c1,2
7,C=CCn1c(N)cc(=O)nc1SCC(=O)Nc1ccc2ccccc2c1,11.5
8,CCOC(=O)Cn1c(=N)n(CCOc2ccc(OC)cc2)c2ccccc21.Cl,-4.6
9,Fc1cccc(-c2cc3nc4c(c(N5CCC6(CC5)OCCO6)n3n2)CCCC4)c1,4.63
10,O=c1c2c(nc3nc[nH]n13)CCC2,-0.632
11,Cc1cc(=O)[nH]c(Cc2ccc(OC(C)C)cc2)n1,10.6
12,COc1ccc(OC)c(C(=O)c2c(C)oc3cc([N+](=O)[O-])c(O)c([N+](=O)[O-])c23)c1,15.3
13,N#CC1(c2ccc(NC(=O)c3ccccc3)cc2)CCCC1,7.32
14,COc1cccc2cc(C(=O)NC(C)C3CCCO3)c(=O)oc12 (stereo not shown),-1.93
15,CC(C)C1CC(CCNCc2ccc(N(C)C)cc2)(c2ccccc2)CCO1 (stereo not shown),-3.61
16,CC(C)(C)c1nc2ccc([N+](=O)[O-])cc2[nH]1,-46.9
17,NS(=O)(=O)c1ccc(CCNC(=O)C(=O)c2cn(CC(=O)N3CCCC3)c3ccccc23)cc1,10.6
18,Cc1ccc(C)c(NC(=S)NCc2ccccc2)c1,15.8
19,CCOC(=O)N1CCN(C(=O)CSc2ccc3nnc(CCNC(=O)c4ccccc4)n3n2)CC1,14
20,O=C(CC1SC(=Nc2ccccc2F)N(CCN2CCOCC2)C1=O)Nc1ccc(F)cc1F (stereo not shown),1.58
21,COc1ccc(S(=O)(=O)N2CCCN(CCC(=O)Nc3cccc(C(F)(F)F)c3)CC2)cc1,-12.7
